Measurements taken from PubChem BioAssay AID686978 (National Center for Advancing Translational Sciences (NCATS), 2013).
The whole screen tested about 420,000 compounds, of which about 64,000 (15%) were called active. Inconclusive means that the source gave no clear call. Such entries were picked first, then a sample of the others. Calls come from the whole dose curve; as a rule, active = well fitted inhibition curve with a large enough effect; inconclusive = small, poorly fitted or top-dose-only effect; inactive = flat fitted curve, though single readings scatter. Potencies of inconclusive entries are left out as doubtful fits.

experiment: qHTS for Inhibitors of human tyrosyl-DNA phosphodiesterase 1 (TDP1): qHTS in cells in absence of CPT; conditions: DT40 Tdp1-/- hTDP1 cells, no CPT, ATP luminescence, 48 h; activity change, negative = growth inhibition: at 46.2 µM (top of the series) unless noted; note: nearly all actives have a fitted effect of over 55% in size
Method in brief: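 Luminescent ATP content (CellTiter-Glo) served as the growth readout. Knockout chicken DT40 cells expressing human TDP1 were exposed to compounds without camptothecin for a minimum 48 hr at 37 °C.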
% is set by controls: 0 for no effect and ±100 for the full control effect; potency is the fitted concentration of half-maximal effect; tags give direction and shape of the fitted curve.

Row | Structure (SMILES) | Potency | activity change, negative = growth inhibition
1 | CS(=O)(=O)c1ccccc1-c1nnc(NC(=O)c2ccc3ncsc3c2)o1 | inconclusive [inhibitor, single point] | 
2 | O=C(Nc1ccc2c(c1)OCCO2)C1CCN(S(=O)(=O)c2cccs2)CC1 |  | inconclusive: -32.9% [inhibitor]
3 | Cc1ccc(-n2nc(C(=O)N3CCN(c4cccc(C(F)(F)F)c4)CC3)c3c4ccccc4n(C)c3c2=O)cc1 | inconclusive [inhibitor, partial curve] | 
4 | CC(NC(=O)c1ccco1)C(=O)O (stereo not drawn) |  | inactive: -13.5%
5 | OC(c1ccccc1)(c1ccccc1)C1CCN(CCCOc2cccc(OC(F)(F)F)c2)CC1 | active: 16.4 µM | 
6 | O=C(CSc1nnc(-c2ccoc2)o1)N1CCOCC1 |  | inactive: -1.48%
7 | Cc1ccc(C(=O)N2CCCC(N3CCN(c4cccc(C(F)(F)F)c4)CC3)C2)s1 (stereo not drawn) | active: 6.51 µM | 
8 | O=C(c1cccc2nc3ccccc3nc12)N1CCOCC1 | inconclusive [inhibitor, single point] | 
9 | COc1ccc(-c2cc(C(=O)OCC(=O)c3c(N)n(C)c(=O)n(C)c3=O)c3ccccc3n2)cc1 | active: 1.64 µM | 
10 | Cc1ccc(CNc2nccn(-c3cc(C)cc(C)c3)c2=O)cc1 | inconclusive [inhibitor, partial curve] | 
11 | Cc1ccc(/C=C2\C(=O)Nc3ccccc32)o1 | active: 3.66 µM | 
12 | COc1ccc(C(c2nnnn2Cc2ccc(F)cc2)N2CCN(c3ccc(OC)cc3)CC2)cc1 (stereo not drawn) | active: 14.6 µM | 
13 | COc1ccc(OC)c(NC(=O)c2cc(=O)c3c(C)cc(C)cc3o2)c1 | inconclusive [inhibitor, full curve, poor fit] | 
14 | CCOC(=O)c1c(NC(=O)c2cc(Cl)ccc2Cl)sc2c1CCCC2 |  | inactive: -7.15%
15 | CCCCCCNc1nc(-c2ccc(OC)cc2)c(CCC(=O)O)s1 |  | inactive: -2.07%
16 | c1ccc2c(c1)Nc1ccncc1S2 | inconclusive [inhibitor, single point] | 
17 | O=C1c2ccccc2C2=Nc3ccccc3SC(c3ccccc3F)C12 (stereo not drawn) | inconclusive [inhibitor, full curve] | 
18 | c1ccc2c(c1)[nH]c1ccccc12 |  | inactive: -6.02%
19 | O=C(COC(=O)Cn1[nH]c(=O)c2ccccc2c1=O)NNC(=O)c1ccc(Br)cc1 |  | inactive: 23.2%
20 | O=C(NCc1ccc2c(c1)CCO2)Nc1ccccc1 |  | inactive: -14.3%
21 | O=C1NC[C@@H](CCCCN2CCN(CCc3ccccc3)C(=O)C2=O)N(CCc2ccc(O)cc2)C1=O |  | inactive: 4.08%
22 | CC(NS(=O)(=O)c1ccccc1)C1CC2CCC1C2 (stereo not drawn) |  | inactive: -21.2%
23 | O=C(O)/C=C\C(=O)Nc1ccc(N2CCN(c3ccc(Cl)c(Cl)c3)CC2)cc1 | inconclusive [inhibitor, partial curve] | 
24 | Cn1c(SCc2ccccc2F)nc2cccnc21 |  | inactive: -27.1%

Row | Structure (SMILES) | Potency | activity change, negative = growth inhibition
25 | C=CCn1cccc(C(=O)Nc2cc(OC)c(OC)c(OC)c2)c1=O | inconclusive [inhibitor, single point] | 
26 | COc1cccc2cc(-c3nnc(SCC(=O)Nc4cc(C(F)(F)F)ccc4Cl)n3N)oc12 | inconclusive [inhibitor, full curve, poor fit] | 
27 | COc1ccc(C(CNC(=O)c2ccc(OCc3csc(C)n3)cc2)N2CCCC2)cc1 (stereo not drawn) | inconclusive [inhibitor, single point] | 
28 | COC(=O)c1ccc(COc2ccccc2/C=N/O)o1 |  | inactive: -19.3%
29 | CC(C)CC(NC(=O)C1CCC(=O)N1C(=O)OCc1ccccc1)C(=O)NC(Cc1ccccc1)C(N)=O (stereo not drawn) |  | inconclusive: -31% [inhibitor]
30 | COc1ccc2c(c1)c1nnc(SCC(=O)Nc3ccccc3F)nc1n2C |  | inconclusive: -33.8% [inhibitor]
31 | NC(=S)N/N=C/c1ccccc1OC(=O)/C=C/c1ccccc1 | active: 0.517 µM | 
32 | CCOC(=O)c1cccc(NC(=O)CCc2c(C)nn(-c3ccc(N4CCOCC4)nn3)c2C)c1 | inconclusive [inhibitor, partial curve] | 
33 | C=CCn1c(SCc2ccccc2Cl)nnc1-c1sc2nc(C)cc(C)c2c1N | active: 23.1 µM | 
34 | CCOC(=O)c1ccc2ncc(C(=O)OCC)c(NCCN3CCOCC3)c2c1 | inconclusive [inhibitor, single point] | 
35 | Cc1ccc(Nc2nc3ccccc3n3cnnc23)cc1C | inconclusive [inhibitor, single point] | 
36 | COCCNC(=S)N(CCc1c(C)[nH]c2ccc(OC)cc12)Cc1ccco1 | inconclusive [inhibitor, partial curve, poor fit] | 
37 | CCN(C(=O)CSc1nc2ccccc2n1CC(=O)Nc1ccc(F)cc1F)c1ccccc1 | active: 14.6 µM | 
38 | CCc1nnc(NC(=O)OCc2ccccc2)s1 |  | inactive: 2.66%
39 | CCN(C(=O)CSc1nc2n[nH]c(C)c2c(=N)n1-c1cccc(OC)c1)c1cccc(C)c1 | inconclusive [inhibitor, single point] | 
40 | CCNC(=S)NC1CC2CCC(C1)N2Cc1ccccc1 (stereo not drawn) |  | inactive: -14.9%
41 | CCC(C)N(C(=O)COc1ccc(Br)cc1C=O)C1CCS(=O)(=O)C1 (stereo not drawn) | inconclusive [inhibitor, single point] | 
42 | C=CCn1nc(C(=O)Nc2ccc(OC)cc2)cc1-c1sc(NC(=O)c2ccccc2)nc1C | inconclusive [inhibitor, single point] | 
43 | CCc1ccc(-n2nc(CO)c(C(=O)NCc3ccccc3OC)n2)cc1 |  | inactive: -2.55%
44 | COc1ccc(C2Oc3nc(SC)nnc3-c3ccccc3N2C(C)=O)cc1 (stereo not drawn) | inconclusive [inhibitor, single point] | 
45 | CNC(=O)c1c2c(nc3ccc(Br)cc13)CCCC2 |  | inconclusive: -33.2% [inhibitor]
46 | CCc1nc2c(OCc3ccc(F)cc3)cccn2c1N(C)C(=O)CC(C)C | inconclusive [inhibitor, single point] | 
47 | O=C(O)c1ccc(COc2ccccc2/C=C2\NC(=O)N(Cc3ccc(F)cc3)C2=O)cc1 |  | inconclusive: -32.1% [inhibitor]
48 | Cc1ccc2[nH]c3c(=O)n(CC(=O)NCCc4ccc(Cl)cc4)ncc3c2c1 | inactive | 
